Source: PMC4336329 (PLoS ONE, 2015)
About 14,000 (4.5%) of roughly 310,000 compounds showed an effect of 50% or more. Effects have a minus sign here. The list shows a part of the results.

target: human ether-à-go-go-related gene (hERG) potassium channel (human, UniProt Q12809); assay: primary screen, population patch clamp on CHO cells stably expressing hERG
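Also: peak tail current of the secondary pulse compared with the same well before compound.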

human ether-à-go-go-related gene (hERG) potassium channel, sequence (Q12809 whole entry, looked up): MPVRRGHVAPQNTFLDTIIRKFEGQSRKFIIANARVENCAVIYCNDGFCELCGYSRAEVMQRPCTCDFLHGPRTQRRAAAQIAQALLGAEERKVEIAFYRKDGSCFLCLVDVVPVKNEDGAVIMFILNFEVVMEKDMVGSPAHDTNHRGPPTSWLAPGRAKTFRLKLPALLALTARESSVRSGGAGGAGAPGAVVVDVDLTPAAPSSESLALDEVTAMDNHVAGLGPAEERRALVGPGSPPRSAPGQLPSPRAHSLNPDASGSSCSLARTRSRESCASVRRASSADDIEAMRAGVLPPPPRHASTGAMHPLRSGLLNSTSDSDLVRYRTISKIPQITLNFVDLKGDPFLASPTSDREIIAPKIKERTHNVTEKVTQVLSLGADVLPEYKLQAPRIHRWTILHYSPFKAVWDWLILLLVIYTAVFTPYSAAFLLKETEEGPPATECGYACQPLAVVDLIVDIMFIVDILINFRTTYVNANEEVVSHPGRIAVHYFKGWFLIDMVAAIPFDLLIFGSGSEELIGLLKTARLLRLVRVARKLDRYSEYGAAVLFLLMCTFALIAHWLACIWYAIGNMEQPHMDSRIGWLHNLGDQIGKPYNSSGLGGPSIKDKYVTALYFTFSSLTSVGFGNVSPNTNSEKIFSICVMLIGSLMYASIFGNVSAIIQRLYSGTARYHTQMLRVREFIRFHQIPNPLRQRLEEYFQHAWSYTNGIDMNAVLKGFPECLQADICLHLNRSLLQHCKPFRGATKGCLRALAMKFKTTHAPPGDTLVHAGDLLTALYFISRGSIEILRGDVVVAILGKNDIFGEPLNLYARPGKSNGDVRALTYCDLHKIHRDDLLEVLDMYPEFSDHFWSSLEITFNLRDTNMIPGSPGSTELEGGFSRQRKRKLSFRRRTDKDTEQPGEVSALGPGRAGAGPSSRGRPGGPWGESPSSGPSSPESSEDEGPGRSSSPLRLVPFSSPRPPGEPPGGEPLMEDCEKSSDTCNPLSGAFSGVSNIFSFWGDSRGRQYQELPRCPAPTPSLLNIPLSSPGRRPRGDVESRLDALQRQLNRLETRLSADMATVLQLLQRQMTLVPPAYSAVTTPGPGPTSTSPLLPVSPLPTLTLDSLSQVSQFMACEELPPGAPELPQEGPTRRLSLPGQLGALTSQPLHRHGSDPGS

SMILES | hERG current change (%, negative = inhibition) at 10uM [%]
CC(C)C(OC(=O)c1nsc(Cl)c1Cl)C(=O)NCc1ccc2c(c1)OCO2 (stereo not drawn) | 12.5
O=C(Nc1ccccc1Oc1ccccc1)C1CC1 | 12.2
COc1ccc(C)cc1NC(=O)c1nn(-c2ccccc2)cc1OC | 15.5
Cn1c(SCC(=O)OCC(=O)c2ccccc2)nnc1-c1cccs1 | -8.23
COc1ccc(NC(=O)CNC(c2ccccc2)c2ccccc2)cc1.O=C(O)C(=O)O | 13.9
Fc1ccc(-c2nnc3ccc(N4CCCC4)nn23)cc1 | 5.51
CCCCn1c(NCc2ccccc2NS(=O)(=O)c2ccc(C)cc2)nc2ccccc21 | 6.11
C/C(=N\NC(=O)CCc1ccccc1)C1C(=O)c2ccccc2C1=O | -4.21
CC1CCCCC1NCC#CCOc1ccc(Cl)cc1.O=C(O)C(=O)O (stereo not drawn) | -29.2
COc1ccc(-c2cc(C(F)F)nc(-n3nc(C)cc3C)n2)cc1 | 11.7
Cn1c(=O)[nH]c(=O)c2c1nc1n2CC(O)CN1c1ccccc1 (stereo not drawn) | 17.2
C/C(=N\N(Cc1ccccc1)c1ccccc1)c1ccncc1.O=P(O)(O)O | -24.7
Cc1nc(C(C)NC(=O)c2cc(COc3ccc(F)c(F)c3)on2)cs1 (stereo not drawn) | -11.2
CCCCC(CC(O)COCC(C)C)C(=O)NNC(=S)Nc1ccccc1 (stereo not drawn) | 9.42
Cc1cc(SCC(=O)NC(=O)c2cccn2C)nc2ccccc12 | -24.4
CCc1ccc2nc(SCC(=O)N3CCCCC3)c(C#N)cc2c1 | -6.9
Cc1cc(C)c(NC(=O)CSc2nnc(-c3ccco3)n2N)c(C)c1 | -14.9
COc1cc(CNc2ccc(CNc3ncn[nH]3)cc2)ccc1OCc1ccccc1 | -2.36
CCCCCn1c(SCCCC)nc2c1c(=O)[nH]c(=O)n2C | -3.74

SMILES | hERG current change (%, negative = inhibition) at 10uM [%]
CC(C)(C)NS(=O)(=O)c1ccc2nc(NC(=O)c3ccc(N4C(=O)CCC4=O)cc3)sc2c1 | 13.8
CCn1c(COc2ccccc2)nnc1SCC(=O)Nc1cc(OC)ccc1OC | -23.1
O=C(COc1ccccc1)NC1=NCCS1 | -1.43
O=C(COc1ccc([N+](=O)[O-])cc1)N(C1CCCCC1)C1CCS(=O)(=O)C1 (stereo not drawn) | -37
CC(C)c1nn2c(=O)cc(O)nc2s1 | -7.92
CCOC(=O)CNC(=O)CSc1nnc(C)c(=O)[nH]1 | 14.5
CC(=O)N1c2ccc(S(=O)(=O)N3CCCC3C(=O)Nc3cccc(F)c3)cc2CC1C (stereo not drawn) | -32.8
CC1(C)CC(NS(=O)(=O)c2ccc(F)cc2)CC(C)(C)N1 | -6.29
COc1ccc(Cn2c(=O)oc3ccc(C)cc32)cc1OC | 7.13
CCc1ccccc1NC(=O)Cn1nc(C(F)(F)F)c2c1CCC2 | 7.74
CCOC(=O)c1cc(C(=O)OCC)c(=O)[nH]c1SCc1ccccc1 | 25.1
Cc1cc(N2CCN(c3ccccc3F)CC2)nc2cc(O)ccc12.Cl | -1.98
Cc1ccc(C(CNC(=O)C(=O)Nc2ccc3c(c2)OCCO3)N2CCN(C)CC2)cc1 (stereo not drawn) | -55.5
Cc1ccc([N+](=O)[O-])cc1N(CC(=O)N1CCCCC1)S(C)(=O)=O | 12.2
CC1CCN(C(=O)c2[nH]cnc2C(=O)N[C@@H](C)C(=O)OCc2ccccc2)CC1 | 5.28
Nc1ccc(N2CCCCC2)c(S(=O)(=O)Nc2ccccc2Cl)c1 | -17.5
CCOc1ccc(NC(=O)c2ccccc2NC(=O)c2cccnc2)cc1 | 7.52
CN(C)S(=O)(=O)Oc1ccsc1C(=O)Nc1ccccc1Cl | -17
O=C(NCCN1CCOCC1)c1cc(-c2cccs2)nc2ccccc12 | -13.1

SMILES | hERG current change (%, negative = inhibition) at 10uM [%]
CCC1CCCCN1CCCNC(=O)Cn1nc(-c2ccc(C)cc2)ccc1=O (stereo not drawn) | -11.5
CSc1ccc(CN2CCN(Cc3ccc([N+](=O)[O-])cc3)CC2)cc1.O=C(O)C(=O)O | -78.1
COc1ccc2[nH]cc(C(=O)CN3CCC(C)CC3)c2c1 | -5.75
CCOc1c(Br)cc(C(N)=O)cc1OC | 17.1
COC(=O)c1cc(C#N)c(N2CC(C)OC(C)C2)nc1C (stereo not drawn) | 11.1
CC(C)c1cc(N2CCN(C(=O)c3ccco3)CC2)n2c(nc3ccccc32)c1C#N | -34.1
O=C(Nc1ccc(N2CCOCC2)cc1)Nc1ccc2nsnc2c1 | 22.3
O=C(Nc1ccccc1)/C(=C\c1ccncc1)NC(=O)c1ccccc1 | -13.5
CCCNC(=O)CN1C(=O)NC(CCSC)C1=O (stereo not drawn) | 17.4
C=CCn1c(N)nc2ccccc21.Cl | 14.7
CCOc1ccccc1C(=O)Nc1nnc(SCC(=O)Nc2cc(C)on2)s1 | 11.6
CCn1c(=S)sc2c(=O)n(-c3ccccc3)c(SCC(=O)NCc3ccco3)nc21 | -33.6
COc1ccc(OC)c(C2C(C(=O)N(C)C)=C(C)Nc3nc4ccccc4n32)c1 (stereo not drawn) | -5.5
COc1ccc(Cl)cc1NC(=S)Nc1cccc(C)c1 | 10.3
O=C(CNC(=O)c1ccccc1Cl)NCC(c1cccs1)N1CCOCC1 (stereo not drawn) | 6.95
Cc1cc(C)c(C(CC(=O)c2cccs2)C(C#N)C#N)c(C)c1 (stereo not drawn) | -23.9
COc1cccc2cc(C(=O)NCCc3c[nH]c4ccccc34)c(=O)oc12 | 6.45
CCOCCCN(C(=O)CNC(=O)c1ccco1)C(C(=O)NC1CCCC1)c1cccc(OC)c1 (stereo not drawn) | 7.5
CSc1ccc(C(=O)NCC(=O)O)cc1[N+](=O)[O-] | -2.41
